About 2,200 (0.71%) of roughly 310,000 compounds showed an effect of 50% or more. The effect is printed as a negative number. This is one part of the list.
molecular target: human ether-à-go-go-related gene (hERG) potassium channel (human, UniProt Q12809); assay: primary screen, population patch clamp on CHO cells stably expressing hERG
Sequence (Q12809 whole entry, looked up): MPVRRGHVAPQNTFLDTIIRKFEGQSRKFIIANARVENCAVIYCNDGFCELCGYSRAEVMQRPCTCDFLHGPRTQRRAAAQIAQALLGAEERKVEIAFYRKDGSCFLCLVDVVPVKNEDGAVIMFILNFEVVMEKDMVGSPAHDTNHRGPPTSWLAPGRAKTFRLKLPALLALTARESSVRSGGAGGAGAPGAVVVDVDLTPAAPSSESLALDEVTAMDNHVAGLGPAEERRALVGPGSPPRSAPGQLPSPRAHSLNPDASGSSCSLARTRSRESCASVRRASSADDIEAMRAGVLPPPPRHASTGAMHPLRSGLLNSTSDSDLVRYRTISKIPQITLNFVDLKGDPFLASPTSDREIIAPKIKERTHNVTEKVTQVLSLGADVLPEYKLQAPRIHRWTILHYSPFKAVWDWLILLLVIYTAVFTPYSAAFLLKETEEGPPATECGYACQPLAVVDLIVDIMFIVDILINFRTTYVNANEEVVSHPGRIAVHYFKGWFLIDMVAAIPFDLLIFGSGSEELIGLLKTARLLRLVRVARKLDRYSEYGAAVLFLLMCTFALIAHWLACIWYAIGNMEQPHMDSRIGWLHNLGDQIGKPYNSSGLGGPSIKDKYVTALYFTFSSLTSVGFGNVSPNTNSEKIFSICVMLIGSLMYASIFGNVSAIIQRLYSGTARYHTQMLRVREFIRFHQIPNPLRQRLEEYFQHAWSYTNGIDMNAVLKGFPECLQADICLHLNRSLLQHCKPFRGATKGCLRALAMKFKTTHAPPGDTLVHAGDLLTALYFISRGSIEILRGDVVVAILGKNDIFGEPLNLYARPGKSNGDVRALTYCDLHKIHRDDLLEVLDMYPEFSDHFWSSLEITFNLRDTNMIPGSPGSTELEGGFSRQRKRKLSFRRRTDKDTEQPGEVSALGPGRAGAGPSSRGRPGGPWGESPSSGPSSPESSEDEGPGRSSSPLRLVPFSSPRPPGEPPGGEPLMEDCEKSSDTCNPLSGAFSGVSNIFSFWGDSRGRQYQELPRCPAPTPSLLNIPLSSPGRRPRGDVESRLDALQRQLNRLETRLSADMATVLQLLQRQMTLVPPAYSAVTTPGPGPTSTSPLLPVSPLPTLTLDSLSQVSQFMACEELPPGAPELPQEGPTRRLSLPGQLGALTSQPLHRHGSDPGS

| Compound | hERG current change (%, negative = inhibition) at 1uM |
| --- | --- |
| O=C(NC(=S)Nc1ccc(S(=O)(=O)Nc2nccs2)cc1)c1cccnc1 | 15.2% |
| Cc1cc(=O)[nH]c(N/N=C/C=C/c2ccccc2)n1 | -21.3% |
| O=C(c1cc(COc2cccc(C(F)(F)F)c2)on1)N1CCC(c2ccncc2)CC1 | -28.8% |
| O=C(Nc1ccc2nn(-c3ccccc3)nc2c1)c1ccc(Br)o1 | 6.62% |
| COc1ccccc1-n1c(SCC(=O)N2CCOCC2)nc2cccnc21 | 6.72% |
| O=C(O)[C@@H]1CC(O)CN1C(=O)CCc1c[nH]c2ccccc12 (stereo partly shown) | 15.8% |
| Cc1ccc(NC(=S)N(Cc2cccs2)Cc2cc3cccc(C)c3[nH]c2=O)cc1 | -3.31% |
| CCOC(=O)/C(C#N)=C/c1ccc(OC(=O)c2ccco2)c(OCC)c1 | 7.35% |
| O=C(O)c1cccc(Nc2ccc([N+](=O)[O-])c3nonc23)c1 | 2.1% |
| Cc1nnc2ccc(-c3ccc(NC(=O)c4cccnc4Cl)cc3)nn12 | 14.5% |
| Cc1ccc(-c2nc(CS(=O)(=O)CC(=O)Nc3cc(F)ccc3F)c(C)o2)cc1 | 6.9% |
| Cc1cc(C)c(C)c(S(=O)(=O)N2CCN(CC(=O)NC(=O)NCc3ccccc3)CC2)c1C | 11.9% |
| O=C(COC(=O)c1ccc(Cl)cc1)NC1CCCCCC1 | 7.76% |
| CC(C)(C)c1cc2cccnc2n1Cc1cccc(Cl)c1 | -2.64% |
| COCCn1c(SCC(=O)Nc2ccc(C)cc2)nc2c(oc3ccccc32)c1=O | 9.36% |
| CCCOc1ccc(N2C(=O)CC(N3CCN(CCN=CC4C(=O)CC(C)(C)CC4=O)CC3)C2=O)cc1 (stereo not shown) | 13.8% |
| O=C(c1cc2cc(Cl)ccc2[nH]1)N1CCCCC1 | 5.58% |
| CN(C)/C=C/C(=O)c1ccc(-n2cccc2)cc1 | 9.29% |
| CCOC(=O)[C@@H]1[C@H]2COc3cc(OC)ccc3[C@@H]2N2C(=O)N(c3ccc(C(F)(F)F)cc3)C(=O)[C@@]12C | 1.83% |
| COc1ccccc1-n1cnc2c(c1=O)c1nc3ccccc3nc1n2-c1ccc(C)cc1 | -4.88% |
| NC1=NC2(CCN(Cc3ccccc3)CC2)n2c(nc3ccccc32)N1 | -1.37% |
| COc1ccc(N(C)C(=O)c2cc3c(s2)-c2ccccc2OC3)c(OC)c1 | 5.39% |

| Compound | hERG current change (%, negative = inhibition) at 1uM |
| --- | --- |
| Cc1ccc(C2=CC(c3ccc(C)cc3)n3ncnc3N2)cc1 (stereo not shown) | 6.65% |
| O=C(CSc1nc2ccccc2[nH]1)NC(=O)NCc1ccco1 | 5.11% |
| S=C(Nc1ccccc1Cl)NC1CCCCCC1 | -6.2% |
| COc1cccc(C2NC(=O)NC(C)=C2C(=O)Nc2ccc(C)cc2)c1 (stereo not shown) | 13.1% |
| CN(C)CCCN(C(=O)c1ccc(S(=O)(=O)N(C)Cc2ccccc2)cc1)c1nc2cc3c(cc2s1)OCO3.Cl | -3.8% |
| O=c1c2ccccc2sn1-c1ccc(F)cc1 | 16.3% |
| COc1cc(/C=N\n2nnnc2N)ccc1OCc1ccc(F)cc1 | -2.39% |
| COCCn1c(=N)c(C(=O)NCc2ccco2)cc2c(=O)n3cc(C)ccc3nc21 | -92% |
| O=C(CC1C(=O)N(c2ccccc2)C(=O)N1C1CCCCC1)Nc1ccccc1 (stereo not shown) | 18.5% |
| CCOc1ccc(C(=O)Nc2ccc(S(=O)(=O)N3C[C@@H]4C[C@@H](C3)c3cccc(=O)n3C4)cc2)cc1 | -1.43% |
| CC(C)OC(=O)CSc1nnc(-c2ccc(Cl)cc2Cl)n1N | 3.79% |
| CC(/C=C/C1(O)C(C)CC(=O)CC1(C)C)OC1OC(CO)C(O)C(O)C1O (stereo not shown) | -1.48% |
| CCOC(=O)COc1c(Br)cc(C2NC(=O)NC(C)=C2C(C)=O)cc1OC (stereo not shown) | 12.4% |
| O=C(COC(=O)CC1CCCC1)Nc1cccc(F)c1 | 8.2% |
| COc1ccccc1/C=N\Nc1cn[nH]c(=O)c1Cl | 12.6% |
| COC(=O)CNC(=O)/C=C/c1ccc(OC)cc1 | 8.46% |
| CCOP(=O)(Cc1cc(C#N)oc1C)OCC | 11.4% |
| NC(=O)C1CCN(C(=O)c2ccc(-c3ccccc3Cl)o2)CC1 | 8.44% |
| COc1ccc(/C=C/C(=O)N2CCN(S(=O)(=O)/C=C/c3ccccc3)CC2)cc1OC | 10.1% |
| COc1ccc(C(CC(=O)N2CCCCC2)NC(=O)C(F)(F)F)cc1 (stereo not shown) | 4.24% |
| COc1ccccc1CNC(=O)COC(=O)c1cc(-c2ccco2)nc2ccccc12 | 7.64% |
| O=C(Cc1ccc(Cl)cc1)N/N=C/c1ccncc1 | 7.9% |

| Compound | hERG current change (%, negative = inhibition) at 1uM |
| --- | --- |
| CCSc1ncc(Cl)c(C(=O)Nc2ccccc2C)n1 | 5.18% |
| COc1cccc(CNC(=O)CSc2ccc(-c3cccs3)nn2)c1 | 4.9% |
| Cc1cnc(C)c(N2CCN(Cc3nc(-c4ccc(C)o4)oc3C)CC2)n1 | 8.17% |
| CCOc1ccccc1NC(=O)N1CCN(S(C)(=O)=O)CC1 | 9.65% |
| O=C(NC1CCCCC1)N(Cc1nc2ccccc2c(=O)[nH]1)C1CCCC1 | 4.03% |
| COc1ccc(/C=C2/C(=O)N(c3c(F)c(F)c(F)c(F)c3F)N=C2C)cc1 | 9.9% |
| CCN1CCN(C2CCCCC2NS(=O)(=O)c2ccc(Cl)cc2)CC1 (stereo not shown) | -36.1% |
| NC(=O)c1ccc(NC(=O)COC(=O)c2n[nH]c3ccccc23)cc1 | 13.5% |
| CCN(C(=O)COC(=O)/C(C#N)=C/c1ccc(OC)cc1)C1CCS(=O)(=O)C1 (stereo not shown) | 17.6% |
| Cc1cn(CCC(=O)Nc2ccc(N3CCOCC3)cc2)c2ccccc12 | -2.97% |
| CCn1c2ccccc2c2cc(NC(=O)CSc3nnc(-c4ccc(OC)c(OC)c4)n3N)ccc21 | 11.3% |
| COc1ccc(CN2[C@@H](CC(=O)O)c3cc(F)ccc3S2(=O)=O)cc1 | 12.8% |
| O=c1nc(N/N=C/c2ccccn2)cn[nH]1 | 3.36% |
| COc1cc2cc(CN(Cc3nnnn3Cc3ccco3)C3CCCCC3)c(=O)[nH]c2cc1OC | 1.72% |
| CCN1CCN(c2oc(COc3ccc(Cl)cc3)nc2C#N)CC1 | -79.3% |
| O=S(=O)(Cc1ccc(Cl)cc1)C1CCCCC1O (stereo not shown) | 11.5% |
| COc1ccc(/C=N/Nc2nc(C)cc(-c3ccccc3)n2)cc1OC | 4.53% |
| COc1cccc(-c2c(-c3cc(OC)cc(OC)c3)n(C)c3ccc(-c4cccc5[nH]ccc45)cc23)c1 | 10.2% |
| Cc1ccc2nc(Nc3ccc(C)c(Cl)c3)c3nncn3c2c1 | 10.7% |
| Cc1ccc(C)c(N(CC(=O)NCc2ccc3c(c2)OCO3)C(=O)CCC(=O)Nc2ccccn2)c1 | 0.821% |
| CCOc1ccc(Br)cc1S(=O)(=O)Nc1ccc(C(=O)OCC(=O)N(C)c2ccccc2)cc1 | 13.6% |
| O=c1c(Cl)nc2cc(Cl)ccc2n1CCNc1ncc(C(F)(F)F)cc1Cl | 12.9% |

| Compound | hERG current change (%, negative = inhibition) at 1uM |
| --- | --- |
| Cn1c(CN2CCCC2)nc2cc(NS(=O)(=O)c3ccccc3)ccc21 | 1.78% |
| CC(=O)c1c(C)[nH]c(C(=O)Nc2cccc(S(=O)(=O)N(C)c3ccccc3)c2)c1C | 2.45% |
| CCc1nnc(NC(=O)CSc2nnc(C(C)NC(=O)c3ccccc3F)n2C)s1 (stereo not shown) | 8.99% |
| COc1cccc(-c2c(C(=O)N/N=C(\C)c3ccco3)nnn2-c2nonc2N)c1 | 19.7% |
| Cc1ccc2c(c1)N(C(=O)CCC(=O)NCc1ccccn1)CC(C)O2 (stereo not shown) | 2.39% |
| CC(C)c1ccccc1NC(=O)c1cccc(NC(=O)c2ccccc2)c1 | 1.18% |
| Cc1cccc(NC(=O)CC(C)S(=O)(=O)c2ccc3c(c2)NC(=O)CO3)c1C (stereo not shown) | -12% |
| CCCN(CCC)CC(O)CN1C(=O)N(CN2C(=O)N(CC(O)CN(CCC)CCC)C(=O)C2(C)C)C(C)(C)C1=O (stereo not shown) | 13.1% |
| Nc1ccc(N(c2ccccc2)c2ccc(N)cc2)cc1 | 1.88% |
| CCOC(=O)N1CCN(Cc2nc3cc(NC(=O)CC)ccc3n2C)CC1 | 11.5% |
| COc1ccc(C)cc1NS(=O)(=O)c1ccc2c(c1)NC(=O)C(C)S2 (stereo not shown) | 9.54% |
| CC(=O)c1c(N=CN(C)C)nc(C)nc1-c1ccccc1 | 6.43% |
| O=C(O)C(=O)O.O=C(c1ccccc1)N1CCN(CC(O)Cn2ccc3ccccc32)CC1 (stereo not shown) | -9.28% |
| Cc1ccccc1C(=O)Nc1nnc(-c2ccc(C(C)(C)C)cc2)s1 | 7.46% |
| COc1cccc(NC(=O)NC2CCCCC2C)c1 (stereo not shown) | 11.3% |
| CSCCC(NC(=O)c1cc(C)oc1C)C(=O)O (stereo not shown) | -3.45% |
| CCCn1cc(CN2CCc3ccc(NC(=O)C4CCCO4)cc3C2)c(C)n1 (stereo not shown) | 9.52% |
| O=C(Cc1cccs1)N=Nc1c(O)[nH]c2ccccc12 | 10.2% |
| O=C(O)CSCc1c(F)cccc1Cl | -1.76% |

Source: paper PMC4336329 (PLoS ONE, 2015)
